The list shows a part of the results. Further columns of the screen follow, without active or inactive calls.
Assays:
Test in all cases: Primary Screen for Target Class Profiling of Small Molecule Inhibitors of Methyltransferases
[1] = molecular target: Glycine N-methyltransferase (Homo sapiens) (UniProt Q14749); conditions: purified enzyme, MTase-Glo SAH luminescence; measured here: GNMT inhibition; at 40 µM; stronger effect = lower value
How it was run: (§1)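 Each enzyme was assayed with SAM and its substrate. SAH formation detected by MTase-Glo luminescence; single-point 40 uM screen[…].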

[2] = molecular target: Guanidinoacetate N-methyltransferase (Homo sapiens) (UniProt Q14353); conditions: purified enzyme, MTase-Glo SAH luminescence; measured here: GAMT inhibition; at 40 µM; stronger effect = lower value
How it was run: as §1

[3] = molecular target: Histamine N-methyltransferase (Homo sapiens) (UniProt P50135); conditions: purified enzyme, MTase-Glo SAH luminescence; measured here: HNMT inhibition; at 40 µM; stronger effect = lower value
How it was run: as §1

[4] = molecular target: Nicotinamide N-methyltransferase (Homo sapiens) (UniProt P40261); conditions: purified enzyme, MTase-Glo SAH luminescence; measured here: NNMT inhibition; at 40 µM; stronger effect = lower value
How it was run: as §1

[5] = molecular target: Phenylethanolamine N-methyltransferase (Homo sapiens) (UniProt P11086); conditions: purified enzyme, MTase-Glo SAH luminescence; measured here: PNMT inhibition; at 40 µM; stronger effect = lower value
How it was run: as §1
On the % scale 0 is the no-effect control and ±100 the full control effect.

Row | Structure (SMILES) | activity change, negative = inhibition [1] [%] | activity change, negative = inhibition [2] [%] | activity change, negative = inhibition [3] [%] | activity change, negative = inhibition [4] [%] | activity change, negative = inhibition [5] [%]
1 | CCCn1c(=O)c2ccccc2n2c(SCc3ccccc3C)nnc12 | -14.5 | 0 | 9.17 | -6.8 | 6.86
2 | COc1ccc(N2CCN(c3nc(C(=O)NCc4cccc(C)c4)cs3)CC2)cc1 | -9.4 | -9.27 | -7.77 | -13.3 | -7.54
3 | CCN1C(=O)c2cc(C(=O)NCc3cccc(OC)c3)nn2CC1(C)C(=O)NC1CCCC1 (stereo not given) | 2.07 | 3.34 | -4.25 | 1.21 | 0.411
4 | CCCn1c(=O)c2ccc(Cl)cc2n2c(=O)n(CC(=O)c3ccc(OC)c(OC)c3)nc12 | 3.57 | 0.065 | 13 | 10.9 | 5.65
5 | COc1ccc(CNC(=O)c2cc(-c3cncc(C)c3)ncc2-c2nccs2)nc1OC | -15.8 | 0.036 | 3.82 | -19.5 | -0.995
6 | COC1CCC12CCN(Cc1ccc(C)s1)CC2 (stereo not given) | -0.386 | 0.405 | 1.44 | 0.185 | -0.636
7 | CC1(C)Oc2ncnc(N)c2N=C1c1ccc(C23CCC(CC(=O)O)(CC2)CC3)cc1 | -36.5 | -17.9 | -2.15 | -33.3 | -3.66
8 | CCCN1C(=O)c2c(C(=O)NCc3ccc(OC)cc3OC)ncn2CC1(C)C(=O)NCc1ccc(F)cc1 (stereo not given) | 1.12 | 0.565 | 3.81 | -3.15 | 7.2
9 | CNC(=O)O[C@H]1COc2ccc(N3CCN(C4COC4)CC3)cc2[C@@H]1NC(=O)c1ccc(F)cc1 | -7.32 | -7.86 | 0.031 | -17.7 | -3.22
10 | O=C1c2c(-c3nc(-c4ccsc4)no3)nnn2CCN1Cc1cccc(Cl)c1 | -5.35 | 0.256 | -3.5 | -0.547 | -0.553
11 | CC(C)=C[C@@H]1[C@H](CO[C@@H]2O[C@H](CO)[C@@H](O)[C@H](O)[C@H]2O)C1(C)C | 3.57 | -3.14 | 8.57 | -8.49 | -0.018
12 | Cc1cc2c(cc3n2CC(C)(C(=O)NC2CCCCCCC2)N(Cc2ccccc2C)C3=O)o1 (stereo not given) | -2.8 | 1.78 | -2.25 | 2.9 | -3.09
13 | CN(C)[C@@H]1CO[C@H](CNC(=O)N2CCOCC2)[C@H]1O | -0.322 | 0.836 | 3.57 | 1.94 | 12.8
14 | COc1ccc(CNC(=O)c2ccc3nnc(C4CCOCC4)n3c2)cc1 | 6.83 | -0.895 | -2.1 | -0.068 | -0.162
15 | C[C@@H]1O[C@@H](O[C@H]2[C@H](O)[C@@H](O)[C@H](OC[C@H]3O[C@@H](OC(=O)[C@]45CCC(C)(C)C[C@H]4C4=CCC6[C@@]7(C)C[C@@H](O)[C@H](O)[C@@](C)(CO)C7[C@H](O)C[C@@]6(C)[C@]4(C)CC5)[C@H](O)[C@@H](O)[C@@H]3O)O[C@@H]2CO)[C@H](O)[C@H](O)[C@H]1O (stereo not given in full) | -0.296 | 0.698 | 2.41 | -13.4 | 4.33
16 | COc1ccc(NC(=O)C(C)(C)Oc2nn(CC3CC3)c3ccc(CN4CCCC4)cc23)cc1 | -3.49 | -0.524 | -79.5 | -4.57 | -1.82
17 | COc1ccc2cc3n(c2c1)CC(C)(C(=O)NC1CCCC1)N(CCc1cccs1)C3=O (stereo not given) | -5.58 | 4.05 | -0.591 | -2.62 | -6.03
18 | Cc1ccc(NC(=O)Cn2nc3n(CCCOC(C)C)c(=O)c4ccccc4n3c2=O)c(Cl)c1 | 3.31 | 0.026 | 3.2 | 2.05 | 3.9
19 | Cn1cc(-c2ccc3nnc(C(F)(F)c4ccc5ncccc5c4)n3n2)cn1 | -21.9 | -14.9 | -21.5 | -26.9 | -20.7

Row | Structure (SMILES) | activity change, negative = inhibition [1] [%] | activity change, negative = inhibition [2] [%] | activity change, negative = inhibition [3] [%] | activity change, negative = inhibition [4] [%] | activity change, negative = inhibition [5] [%]
20 | c1ccc(OCc2noc(-c3ccc(NC4CCSC4)nc3)n2)cc1 (stereo not given) | -5.43 | -5.55 | -8.72 | -6.5 | -4.68
21 | C=C[C@H]1[C@H](O[C@@H]2O[C@H](CO)[C@@H](O)[C@H](O)[C@H]2O)OC=C2C(=O)N3Cc4c([nH]c5ccccc5c4=O)[C@@H]3C[C@H]21 | -0.895 | -1.83 | 6.72 | -11.6 | -7.77
22 | CC1OC(O[C@@H]2[C@H](O)[C@@H](OC3OC(CO)C(O)C(O)C3O)[C@H](OC(=O)[C@]34CCC(C)(C)C[C@H]3C3=CCC5[C@@]6(C)CC[C@H](O[C@@H]7O[C@H](C(=O)O)[C@@H](O)[C@H](O[C@@H]8OC[C@@H](O)[C@H](O)[C@H]8O)[C@H]7O[C@@H]7O[C@H](CO)[C@H](O)[C@H](O)[C@H]7O)[C@@](C)(C=O)C6CC[C@@]5(C)[C@]3(C)C[C@H]4O)O[C@@H]2C)C(O)C(O)C1OC1OCC(O)C(O)C1O (stereo not given in full) | 0 | 3.21 | 8.39 | -7.82 | 1.63
23 | CCN1CCn2c3c(c4cc(C)ccc42)CCCC31 (stereo not given) | -0.247 | 0 | 0.495 | 12 | -4.47
24 | COCCC1(NS(C)(=O)=O)CCN(S(=O)(=O)c2cc(OC)ccc2OC)CC1 | -0.148 | 3.85 | 13.9 | 6.04 | 5.78
25 | CN1[C@@H](CC(=O)c2ccccc2)CCC[C@H]1C[C@H](O)c1ccccc1 | -0.967 | 7.86 | -0.301 | -1.53 | 8.31
26 | CC(C)Cn1c(=O)c2ccc(C(=O)NC3CCCC3)cc2n2c(SCC(N)=O)nnc12 | 1.35 | 0 | 5.31 | 4.57 | 1.16
27 | CC(C)CCn1c(=O)c2ccccc2n2c(=O)n(Cc3ccc(F)cc3Cl)nc12 | -0.087 | 0 | 0.145 | -6.77 | -0.582
28 | COc1ccc2cc3n(c2c1)CC(C)(C(=O)NC1CCCCCC1)N(Cc1ccco1)C3=O (stereo not given) | 3.18 | 0.812 | 8.78 | -9.82 | -1.34
29 | CCN(CC)C(=O)[C@@H]1CCC[C@@H](NC(=O)c2ccc(OC)cc2)CN(C)C(=O)C1 | -6.55 | -12.3 | -3.84 | -10.5 | -9.94
30 | CCc1ccc(CN2C(=O)c3cc(C(=O)OC)nn3CC2(C)C(=O)NC2CCCCC2)cc1 (stereo not given) | 1.14 | 0.186 | 5.16 | 1.15 | 2.88
31 | O=C(Cn1nc2n(Cc3ccc(F)cc3)c(=O)c3ccccc3n2c1=O)Nc1ccc(F)cc1 | -0.649 | -4.14 | 4.42 | -8.99 | -1.93
32 | Cc1nc2ncccn2c1C(=O)N1CCC2(CCCN(C)C2=O)C1 (stereo not given) | -0.982 | -4.84 | 0.105 | -3.65 | -5.34
33 | CCC(CC)CC1(C(=O)Nc2ccccc2SC(=O)C(C)C)CCCCC1 | -5.21 | -11.7 | -2.42 | -28.9 | -8.72
34 | O=C(Cn1ccc2cc(S(=O)(=O)N3CCCCC3)ccc21)NCCCN1CCOCC1 | 6.88 | 2.85 | -3.24 | 4.12 | 2.69
35 | CCCn1c(=O)c2ccc(C(=O)NCC(C)C)cc2n2c(=O)n(Cc3c(F)cccc3Cl)nc12 | -1.45 | 0.941 | -0.154 | 2.44 | 1.7
36 | CCc1ccc(N2C(=O)c3cc4ccc(OC)cc4n3CC2(C)C(=O)NC2CCCC2)cc1 (stereo not given) | 1.26 | 1.53 | 1.99 | -2.21 | -5.02
37 | CCC(C)NC(=O)Cn1nc2n(CC(C)C)c(=O)c3ccc(C(=O)NC4CCCCC4)cc3n2c1=O (stereo not given) | 0.624 | 4.83 | -0.005 | -1.34 | -0.101
38 | O=C(CCc1cc2n(n1)CCCN(C(=O)CCc1ccsc1)C2)NC1CC1 | -6.08 | -9.6 | -7 | -13.9 | -12.2

Row | Structure (SMILES) | activity change, negative = inhibition [1] [%] | activity change, negative = inhibition [2] [%] | activity change, negative = inhibition [3] [%] | activity change, negative = inhibition [4] [%] | activity change, negative = inhibition [5] [%]
39 | CCOC(=O)c1cc2n(n1)CC(C)(C(=O)NCCC(C)C)N(c1ccc(OCC)cc1)C2=O (stereo not given) | 1.74 | 0 | 2.77 | 7.11 | -0.819
40 | CCN(CCCNC(=O)CCc1nnc2n(Cc3ccc(C)cc3)c(=O)c3ccccc3n12)c1cccc(C)c1 | -7.66 | 1.52 | -14.2 | -3.62 | -13.5
41 | CCC(C)NC(=O)c1ccc2c(=O)n(C)c3nnc(SCc4cccc(C)c4)n3c2c1 (stereo not given) | 5.35 | 0 | 3.92 | 0.219 | 6.15
42 | C[C@@H]1CN(c2nc(-c3ccccc3)no2)CC[C@@]1(O)C1CCC1 | -8.97 | -7.22 | -7.84 | -9.95 | -11.2
43 | O=C(CCc1ccsc1)N1CCC2(CCCN(Cc3cccnc3)C2=O)C1 (stereo not given) | -7.6 | -9.28 | -4.43 | -11.1 | -6.04
44 | O=C(Nc1ccn(Cc2c(F)cccc2C(F)(F)F)n1)c1c(F)cccc1F | -1.01 | -2.04 | 11.3 | -12.8 | 1.07
45 | C=C1CCC2C(C)(C(=O)O)CCCC2(C)C1CC/C(=C\CO)CO (stereo not given) | -0.433 | 3.43 | 8.25 | -19 | 2.9
46 | O=c1cc(N2CCOCC2)oc2c(NCc3ccc(F)cc3)nccc12 | -6.24 | -6.43 | -2.04 | -23.4 | -6.9
47 | CCOc1ccccc1CN1C(=O)c2c(C(=O)OC)ncn2CC1(C)C(=O)NCc1ccccc1 (stereo not given) | 1.02 | 0 | -5.57 | 3.74 | 0.954
48 | O=C(NC1CC1)[C@@H]1C[C@H](Oc2ccccc2)CN1C(=O)C1CCC1 | -3.31 | -7.36 | -1.2 | -6.94 | -3.46
49 | CC(C)C1=CC2C(CC[C@]2(C)O)[C@](C)(O)CC1 (stereo not given in full) | 4.38 | 4.95 | 13.6 | -8.23 | 5.36
50 | C[C@@H]1CCC2C(C)(C)[C@H](O)CC[C@]2(C)[C@@]12Cc1c(O)cc3c(c1O2)CN(CCO)C3=O (stereo not given in full) | 0 | 7.14 | -21.5 | -9.43 | 3.87
51 | CC1(O)CC(c2nc(-c3ccc4ccc(-c5ccccc5)nc4c3)c3c(N)nccn23)C1 (stereo not given) | -5.8 | 6.11 | -40.6 | -11.2 | -0.492
52 | Cc1ccc2c(c1)c(-n1cccc1)c1n2CC(C)(C(=O)NC2CCC(C)CC2)N(Cc2ccccc2Cl)C1=O (stereo not given) | 0.258 | 0 | 3.81 | 2.3 | 0.361
53 | c1ncc(CN2CCn3c(nnc3C3CCCNC3)C2)s1 (stereo not given) | -3.95 | -6.9 | -1.33 | -11.2 | -7.76
54 | FC(F)(F)c1cc(-c2ncn(/C=C\c3nnco3)n2)cc(C(F)(F)F)c1 | 4.49 | 11.8 | 5.86 | -12.3 | 1.77
55 | Cc1cnc(CCNC(=O)C2CC=CC2)n1C1CC1 | 0.97 | 4.43 | -3.96 | -2.08 | 3.57
56 | CCOc1ccc(CCN2C(=O)c3cc4ccc(OC)cc4n3CC2(C)C(=O)NC2CCCC2)cc1 (stereo not given) | 2.54 | 0 | 2.64 | 4.33 | -1.09

Reference: PubChem BioAssay AID1745853 (National Center for Advancing Translational Sciences (NCATS), 2022)
